Sequences with one replicate were seen in a single cluster, so their values are uncertain.
Each sequence was assayed on ATP (assay: switch fluorescence ratio, 500 uM ATP over buffer (Cy3 cluster intensity, sum of 5 cycles each) (fold (ratio)); higher = stronger signal-on switching upon ATP binding; sequences stand for … in TCGTCGGCAGCGTCAGATGTGTATAAGAGACAGTTTTTTTTTTTTTTTTTTTTTTTTT…TC). Settings: aptamer strand: ATP DNA aptamer (quencher-CACCTGGGGGAGTATTGCGGAGGAAGG + anchor), 100 nM annealed; ATP concentration: 500 uM; one replicate.
Method in brief: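 Per cluster, summed Cy3 intensity from the target cycles was divided by that from the buffer cycles to give the fluorescence ratio, then averaged per switch-domain sequence. Clusters outside 100-1000 RFU were excluded. The Cy3-labelled switching-strand clusters, on a modified Illumina MiSeq flow-cell, were annealed to 100 nM quencher-labelled ATP aptamer and imaged in selection buffer, then after 15 min with 500 uM ATP at 22 °C, for five cycles with NaOH stripping and re-annealing between them.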
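Note: ATP exposure 15 min at 22 °C before imaging.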

Sequence | switch fluorescence ratio
ATCGTCCTGG | 1.01
ATCGTCGTT | 1
ATCGTGTACT | 1.03
ATCGTTGTGC | 0.986
ATCGTTTGGA | 0.97
ATCTAAGAAT | 0.955
ATCTACACAG | 1.05
ATCTACGCAC | 2.26
ATCTACTAGC | 1.06
ATCTAGAATA | 1.02
ATCTAGACAC | 1.02
ATCTAGTGTG | 0.985
ATCTATTGGT | 0.998
ATCTCAGACT | 1.02
ATCTCAGATT | 0.955
ATCTCAGGTA | 1.01
ATCTCAGTG | 1.03
ATCTCATATG | 1
ATCTCATATT | 0.998
ATCTCATTTC | 1.87
ATCTCGGGA | 1.01
ATCTCTCTTG | 0.988
ATCTGAAGTC | 1.04
ATCTGAATTC | 0.977
ATCTGCATCG | 1.08
ATCTGGTACT | 1.05

Sequence | switch fluorescence ratio
ATCTGGTGT | 1.08
ATCTTAGTCT | 0.998
ATCTTATAAG | 1.02
ATCTTATATT | 0.978
ATCTTCCAAA | 1.06
ATCTTCTAA | 1
ATCTTGATAC | 1.01
ATCTTTAAAT | 1
ATCTTTTCAC | 1.01
ATGAACTGAT | 1.04
ATGAAGAATG | 1.02
ATGAAGCGTA | 0.956
ATGAAGGTAT | 1
ATGAATCGGG | 1.02
ATGACCCAGT | 1.02
ATGACCTGTG | 0.992
ATGACCTTCT | 1.23
ATGACGCCCC | 1.25
ATGACTGTGA | 0.974
ATGAGCACAC | 1.17
ATGAGCATTG | 1.03
ATGAGCCACG | 0.958
ATGAGCTGCA | 0.934
ATGAGGAGC | 0.919
ATGAGGATAT | 1
ATGAGGCAAT | 4.54

Sequence | switch fluorescence ratio
ATGAGGGCAA | 1.2
ATGAGGGTGA | 1.03
ATGAGGTATA | 0.999
ATGAGTAAAA | 1.02
ATGAGTGATT | 1.01
ATGATATTTA | 1.02
ATGATCACGC | 1.08
ATGATTACGG | 1.01
ATGATTGGAA | 0.957
ATGCACGACG | 1.05
ATGCACGAGG | 1.07
ATGCATCCTA | 0.956
ATGCCAGGAG | 1.01
ATGCCATTCC | 1.34
ATGCCGAGCG | 1.02
ATGCCGCTGG | 0.995
ATGCCGTAGG | 1.02
ATGCCTAT | 1.37
ATGCCTGGTT | 0.986
ATGCGACGTT | 0.964
ATGCGATCAT | 0.964
ATGCGATGGT | 1.01
ATGCGCCAAT | 1.2
ATGCGCTGGT | 1
ATGCGGAAT | 1.01
ATGCGGCAT | 0.986

Sequence | switch fluorescence ratio
ATGCGTAGCC | 1.03
ATGCGTCCTG | 1.01
ATGCGTTGTT | 1.01
ATGCGTTTAC | 1.12
ATGCTAAATT | 1.03
ATGCTACTCA | 1.1
ATGCTCAGCA | 1.04
ATGCTTAAGC | 1.03
ATGCTTGGAA | 1.04
ATGGAAGTAG | 1.07
ATGGAATGAT | 1.06
ATGGAATTTA | 1
ATGGACAGGG | 0.976
ATGGACCG | 1.05
ATGGACCTTT | 1.04
ATGGAGGGCT | 0.988
ATGGAGGTA | 0.992
ATGGATCGG | 0.98
ATGGATGAGT | 1.03
ATGGATGGTC | 0.958
ATGGATTCGC | 1.04
ATGGATTCGT | 0.937
ATGGATTGGG | 0.987
